{"source": "the supplement of paper PMC4723716", "note": "The full ranking holds about 3,600 compounds; the median of “viability index relative to DMSO control” is about 0.81, and the lowest 2% start at about 0.13. The list shows a part of the results.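 Further: 384-well serum-free SaLSSA: MitoTracker Red CMXRos staining with saponin lysis, high-content imaging, treated-well particle count divided by plate-mean count of DMSO wells.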", "data": [{"test_system": "Plasmodium falciparum NF54 stage V gametocytes", "test": "viability index relative to DMSO control (fraction); higher = less gametocyte killing", "conditions": "1.25 µM, incubation time: 72 h", "values": [{"molecule": "CCn1c(SCc2ccc([N+](=O)[O-])cc2)nc2sc3c(c2c1=O)CCN(C)C3", "viability index": 0.969}, {"molecule": "CCCCN(CCCC)CCCNc1ncnc2c1[nH]c1ccc(C)cc12", "viability index": 0.744}, {"molecule": "CC1(C)Cc2c(sc(NC(=O)CCl)c2C#N)CO1", "viability index": 0.556}, {"molecule": "CC(=O)N(C1=C(N2CCCCC2)C(=O)c2ccccc2C1=O)c1cccc(Cl)c1", "viability index": 0.144}, {"molecule": "COc1ccc(OC)c(-c2ccc(O)c(CNCC3(N4CCCCC4)CCCCC3)c2)c1", "viability index": 0.357}, {"molecule": "Cc1ccc(C)c(N2C(=O)CC(Cc3ccc(Cl)cc3)C2=O)c1", "note": "(stereo unspecified)", "viability index": 0.746}, {"molecule": "CC1=C(CC(=O)c2cccs2)C(=O)c2ccccc2C1=O", "viability index": 0.748}, {"molecule": "Oc1ccccc1Nc1nc(-c2ccccc2O)nc2ccccc12", "viability index": 0.567}, {"molecule": "COc1ccc(OCC(=O)Nc2cccc(-c3nc4ncccc4o3)c2)cc1", "viability index": 0.76}, {"molecule": "COc1ccc(OC)c(C2CC(=O)N3CN(Cc4ccccc4)CSC3=C2C#N)c1", "note": "(stereo unspecified)", "viability index": 1.02}, {"molecule": "CN(C)c1oc(-c2ccc(Cl)cc2Cl)nc1[P+](c1ccccc1)(c1ccccc1)c1ccccc1", "viability index": 0.152}, {"molecule": "CCOC(=O)c1sc(NC(=O)CSc2nnc(CNC(=O)COc3ccccc3)n2C)c(C(=O)OCC)c1C", "viability index": 1.06}, {"molecule": "O=C(Nc1ccc(Oc2cccnc2)cc1)C1CCN(Cc2ccc3nonc3c2)CC1", "viability index": 0.913}, {"molecule": "O=c1c2c([nH]c3cc(Cl)ccc13)CCCC2", "viability index": 0.829}, {"molecule": "CCCS(=O)(=O)c1c(S(=O)(=O)CCC)c2ccc(C(C)=O)cn2c1C(=O)c1ccc(C)cc1", "viability index": 0.853}, {"molecule": "Cc1n(N)c2ccccc2[n+]1CC(=O)c1ccc([N+](=O)[O-])cc1", "viability index": 0.785}, {"molecule": "O=[N+]([O-])c1ccc(C=NNc2nc(Nc3ccccc3)nc(Nc3ccccc3)n2)o1", "viability index": 0.0664}, {"molecule": "COc1ccc(Cl)cc1NC(=O)C1c2ccccc2C(=O)N(CC(C)C)C1c1cccs1", "note": "(stereo unspecified)", "viability index": 0.426}, {"molecule": "Cc1ccc(-c2c[n+](Cc3cccc(C)c3)c3n2CCC3)cc1", "viability index": 0.883}, {"molecule": "COc1ccc(CCN2C(=O)c3ccc(Oc4ccc(NC(=O)c5oc(=O)c6ccccc6c5-c5ccccc5)cc4)cc3C2=O)cc1OC", "viability index": 0.95}, {"molecule": "CC(=O)Nc1nc(C)c(-c2csc(Nc3ccc(C)cc3)n2)s1", "viability index": 0.351}, {"molecule": "COC(=O)c1ccc(C2C3=C(O)CC(c4ccc(C)cc4)CC3=Nc3ccccc3N2C(=O)c2cccs2)cc1", "note": "(stereo unspecified)", "viability index": 0.472}, {"molecule": "N=c1n(Cc2ccccc2)c2ccccc2n1CC(O)c1ccc(Br)cc1", "note": "(stereo unspecified)", "viability index": 0.804}, {"molecule": "Cc1ccc(S(=O)(=O)NC(=O)Nc2ccc(N(C)C)cc2)cc1", "viability index": 0.921}, {"molecule": "CCOC(=O)C1=C(C)N=c2sc(=Cc3cc(Br)ccc3O)c(=O)n2C1c1ccc(OC)c(OC)c1", "note": "(stereo unspecified)", "viability index": 0.928}, {"molecule": "Cc1cc(OC(C)C(=O)N2CCc3ccccc32)ccc1Cl", "note": "(stereo unspecified)", "viability index": 1.36}, {"molecule": "Cc1ccc(-n2cc(C(=O)N(C)Cc3ccccc3)c3ccccc3c2=O)cc1C", "viability index": 0.979}, {"molecule": "CCOc1ccc2c(C)nc(NC(N)=NC(C)=O)nc2c1", "viability index": 0.688}, {"molecule": "COc1ccc(C2C(C(=O)Nc3cccc(C(F)(F)F)c3)c3ccccc3C(=O)N2C2CCCCC2)cc1", "note": "(stereo unspecified)", "viability index": 0.679}, {"molecule": "Cc1c(C)n(Cc2ccc(F)cc2)c2ccc(C(=O)NCc3ccco3)cc12", "viability index": 0.791}, {"molecule": "COC(=O)C1=C(C)NC2=C(C(=O)CC(c3ccc(OC)c(OC)c3)C2)C1c1cccs1", "note": "(stereo unspecified)", "viability index": 0.297}, {"molecule": "COc1cc(NC(=O)Cn2ncc3c(=O)oc4ccccc4c32)cc(OC)c1OC", "viability index": 0.859}, {"molecule": "CCOC(=O)c1c(NC(=O)C(C)Sc2nnc(CNC(=O)c3ccco3)n2-c2cccc(Cl)c2)sc2c1CCCC2", "note": "(stereo unspecified)", "viability index": 0.967}, {"molecule": "COc1ccc(C2C(C(=O)OC3CCCCC3)=C(C)Nc3nnnn32)cc1", "note": "(stereo unspecified)", "viability index": 0.751}, {"molecule": "CC(=O)C1C(=O)c2c(cccc2[N+](=O)[O-])C1=Nc1ccccc1C", "note": "(stereo unspecified)", "viability index": 0.73}, {"molecule": "COc1ccccc1NC(=O)CCN1CCCC(C)C1", "note": "(stereo unspecified)", "viability index": 0.789}, {"molecule": "COc1ccc2c(C)nc(Nc3nc(C)cc(-c4ccccc4)n3)nc2c1", "viability index": 0.278}, {"molecule": "COC(=O)C1=C(C)NC(=Cc2cc(C)n(-c3cc(C)ccc3C)c2C)C1=O", "viability index": 0.363}, {"molecule": "Cc1ccc(C2CC(C(F)(F)F)n3ncc(C(=O)Nc4ccc(Cl)cc4)c3N2)cc1", "note": "(stereo unspecified)", "viability index": 0.669}, {"molecule": "COc1ccc(C=C2N=C(c3ccc(Cl)cc3)N(c3ccccc3)C2=O)cc1OC", "viability index": 1.03}, {"molecule": "COc1ccc(C2CC(c3ccccc3Cl)n3ncnc3N2C(=O)C2CC2)cc1", "note": "(stereo unspecified)", "viability index": 0.808}, {"molecule": "O=C(CSc1nc(NCc2ccccc2)c2ccccc2n1)NCc1ccco1", "viability index": 1.05}, {"molecule": "CC(C)CC(NC(=O)C(=Cc1ccco1)NC(=O)c1ccccc1)C(=O)OCc1ccccc1", "note": "(stereo unspecified)", "viability index": 0.755}, {"molecule": "Cc1ccccc1C=C1SC(=Nc2ccccc2)NC1=O", "viability index": 0.653}, {"molecule": "COc1ccc(-c2c[n+](CC(=O)c3ccc(Cl)cc3)c3n2CCC3)cc1", "viability index": 0.987}, {"molecule": "Cc1cccc2cc(CNC3CCOC(C)(C)C3)c(N3CCCC3)nc12", "note": "(stereo unspecified)", "viability index": 0.768}, {"molecule": "CCC(Sc1nnc(-c2ccc(C)cc2)c(-c2ccc(C)cc2)n1)C(=O)NCCOC", "note": "(stereo unspecified)", "viability index": 0.647}, {"molecule": "Cc1cc(F)ccc1NC(=O)C(C)n1c2ccccc2c2nc(=O)cc(C)n21", "note": "(stereo unspecified)", "viability index": 0.946}, {"molecule": "CCCN(CCC)S(=O)(=O)c1cc(Br)cc2c1N(C(C)=O)CC2", "viability index": 1.1}, {"molecule": "Cc1cc(Nc2ccc(Cl)c(C)c2)n2nc(C)nc2n1", "viability index": 1.02}, {"molecule": "Cn1c(=O)n(C)c2cc(NC(=O)CCl)ccc21", "viability index": 0.504}, {"molecule": "COc1ccc(OC)c(NC2=C(Cl)C(=O)N(c3ccc(C)c(Cl)c3)C2=O)c1", "viability index": 0.981}, {"molecule": "CCOC(=O)c1c(NC(=O)CSc2nnc(CNC(=O)c3cccs3)n2-c2ccccc2OC)sc2c1CCC2", "viability index": 1.07}, {"molecule": "CCOC(=O)c1c(NC(=O)CCC(=O)OC)sc2c1CC(C)(C)SC2", "viability index": 1.14}, {"molecule": "CN(C)C=Nc1nn(C)cc1C(=O)Nc1ccc(F)c(Cl)c1", "viability index": 0.967}, {"molecule": "Cc1cc(C)c2c(c1)OCN(Cc1ccccc1Cl)C2", "viability index": 0.51}]}]}
